Test results: ChEMBL document CHEMBL4888484, “Replenishing the malaria drug discovery pipeline: Screening and hit evaluation of the MMV Hit Generation Library 1 (HGL1) against asexual blood stage Plasmodium falciparum ,using a nano luciferase reporter read-out” (2022)
Screen size: about 150,000 compounds; about 540 (0.36%) showed an effect of 50% or more. The list shows a part of the results.

Tested on: Plasmodium falciparum
Assay: Primary screen in NF54 nanoGlo assay, in single point, at 2uM, 72h; a lower Z score goes with more inhibition
Type: functional, Erythrocyte
Details: timepoint 72 hour

**Q.** For `CC(NC1CC(C)(C)OC1(C)C)C(=O)NCc1cccs1` (centres undefined), which “% Inhibition” value is on record?
**A.** The value was -6%.

**Q.** What about the Z score of the same compound?
**A.** The Z score was 0.75.

**Q.** What does the source list for `COc1ccc(-c2cc(C(=O)NCc3ccc4c(c3)OCO4)c3ccccc3n2)cc1OC`?
**A.** % Inhibition: -7%; Z score: 1.3

**Q.** What does the source list for `Clc1ccc(N2COC3c4cccc5cccc(c45)C32)cc1` (centres undefined)?
**A.** % Inhibition: -1%; Z score: 0.06

**Q.** `CC1=N[C@@H](Cc2ccccc2)C(=O)Nc2cc(Br)ccc21` was tested. Which “% Inhibition” value did it give?
**A.** Its value is -9%.

**Q.** What about the Z score of the same compound?
**A.** The Z score was 1.67.

**Q.** Which “% Inhibition” value does the source give for `CCCC[C@@H](c1cccnc1)N(C)Cc1ccco1` here?
**A.** Its value is -15%.

**Q.** And the Z score?
**A.** Its Z score is 1.47.

**Q.** Which results are given for `O=c1c2ccccc2sn1-c1cc(S(=O)(=O)N2CCOCC2)ccc1N1CCCC1`?
**A.** % Inhibition: -13%; Z score: 2.05

**Q.** Which results are given for `C[C@@H](CO)NC(=O)C(=O)Nc1c(F)c(F)c(F)c(F)c1F`?
**A.** % Inhibition: -43%; Z score: 4.99

**Q.** Which “% Inhibition” value does the source give for `O=C(c1n[nH]c2ccccc12)N1C[C@@H]2CC[C@H]1CN(Cc1ccccn1)C2` here?
**A.** The value was -18%.

**Q.** And the Z score?
**A.** The Z score was 3.14.

**Q.** With `CC(C)(O)c1ccc(CNC(=O)N2C3CCC2CC(CCF)C3)cc1` (centres undefined) as the compound, how does the “% Inhibition” value read?
**A.** The value was -7%.

**Q.** What about the Z score of the same compound?
**A.** Its Z score is 0.97.

**Q.** Which results are given for `CCCN1C(=O)CC[C@@H]2CN(C(=O)c3cc[nH]n3)CC[C@@H]21`?
**A.** % Inhibition: -10%; Z score: 2.02

**Q.** `CC(C)(C)OC(=O)N1CCC(S(N)(=O)=O)CC1` was tested. Which “% Inhibition” value did it give?
**A.** The value was -18%.

**Q.** And the Z score?
**A.** Its Z score is 3.53.

**Q.** How did the “% Inhibition” value turn out when `CCN(CC)CCN(C(=O)c1ccc(S(=O)(=O)N2CCOCC2)cc1)c1nc2cc3c(cc2s1)OCCO3` was run?
**A.** The value was 16%.

**Q.** What about the Z score of the same compound?
**A.** Its Z score is -2.08.

**Q.** Which results are given for `CCn1nc(C)nc1CCCc1c[nH]c2ccccc12`?
**A.** % Inhibition: 3%; Z score: -0.49

**Q.** How did the “% Inhibition” value turn out when `O=c1c2cnc(N3CCc4ccccc4C3)nc2ccn1-c1cccc(F)c1` was run?
**A.** The value was -15%.

**Q.** And the Z score?
**A.** The Z score was 2.

**Q.** Which “% Inhibition” value does the source give for `Cn1nc2c(c1-c1cncc(C(F)F)c1)CCCC2` here?
**A.** The value was 3%.

**Q.** What about the Z score of the same compound?
**A.** The Z score was -0.32.

**Q.** What does the source list for `COc1ccc(C)c2sc(N(CCCN(C)C)C(=O)c3ccnn3C)nc12`?
**A.** % Inhibition: -7%; Z score: 1.27

**Q.** Which “% Inhibition” value does the source give for `CCOc1cc(CNc2ccc(N3CCNC(=O)C3)nc2)cc(Cl)c1OC` here?
**A.** The value was -8%.

**Q.** And the Z score?
**A.** Its Z score is 0.89.

**Q.** What does the source list for `O=C(c1cc(=O)c2ccccc2[nH]1)N1Cc2ccccc2CO1`?
**A.** % Inhibition: 1%; Z score: -0.1

**Q.** What does the source list for `CCOC(=O)c1cccc(NC(=O)Cn2c(=O)n(C(C)C)c(=O)c3sc(N4CCCCC4)nc32)c1`?
**A.** % Inhibition: -16%; Z score: 1.44

**Q.** What does the source list for `Cc1noc(C)c1S(=O)(=O)N[C@@H](C)C(=O)N1CCCC(C)CC1` (some centres undefined)?
**A.** % Inhibition: -7%; Z score: 0.97

**Q.** Which results are given for `CC(=O)N1CCCN(c2nc3c(s2)CCC3)CC1`?
**A.** % Inhibition: -18%; Z score: 2.58

**Q.** `CC(C)OC(=O)CN(CCC(N)=O)c1ccc(F)cc1` was tested. Which “% Inhibition” value did it give?
**A.** The value was -6%.

**Q.** What about the Z score of the same compound?
**A.** The Z score was 0.59.

**Q.** Which results are given for `Cc1nc(C)c(CC(=O)N(Cc2ccncc2)C2CCCCC2)s1`?
**A.** % Inhibition: -7%; Z score: 1.27

**Q.** Which results are given for `CCc1cnc(CN2C(=O)NC3(CCC3)C2=O)o1`?
**A.** % Inhibition: 2%; Z score: -0.33

**Q.** Which results are given for `Cc1cccc2c1OCC[C@@H]2NC(=O)N1CCC[C@H]1CO`?
**A.** % Inhibition: -12%; Z score: 1.25

**Q.** How did the “% Inhibition” value turn out when `O=C(CCNc1ncc(Cl)cn1)N1CCOCC1` was run?
**A.** The value was -5%.

**Q.** And the Z score?
**A.** The Z score was 0.64.

**Q.** `Cn1cc2c(n1)c(=O)n(Cc1ccc(F)cc1)c(=O)n2CC(=O)Nc1cccc(Cl)c1` was tested. Which “% Inhibition” value did it give?
**A.** The value was -12%.

**Q.** And the Z score?
**A.** Its Z score is 1.49.

**Q.** `CCc1onc(C)c1CS(=O)(=O)c1ccc(C)s1` was tested. Which “% Inhibition” value did it give?
**A.** Its value is -12%.

**Q.** What about the Z score of the same compound?
**A.** The Z score was 2.05.

**Q.** Which “% Inhibition” value does the source give for `CNC(=O)c1ccc(-c2nc(CN3CCN(S(=O)(=O)c4ccc(OC)cc4)CC3)c(C)o2)cc1` here?
**A.** Its value is -18%.

**Q.** And the Z score?
**A.** The Z score was 2.66.

**Q.** With `Cc1ccc2c(C(=O)N[C@@H](C)Cn3cncn3)cc(-c3cncnc3)nc2c1C` as the compound, how does the “% Inhibition” value read?
**A.** Its value is -7%.

**Q.** And the Z score?
**A.** Its Z score is 1.16.

**Q.** With `Cc1n[nH]c(C)c1[C@H](C)N(C)C(=O)c1cn(C2CCCCCC2)nn1` as the compound, how does the “% Inhibition” value read?
**A.** Its value is 9%.

**Q.** What about the Z score of the same compound?
**A.** Its Z score is -1.29.

**Q.** How did the “% Inhibition” value turn out when `Cc1noc(COC2CCN(C(=O)c3cccc(F)c3)CC2)n1` was run?
**A.** Its value is -5%.

**Q.** And the Z score?
**A.** The Z score was 0.66.

**Q.** `c1cnc(N2CCCC2)c(-c2ccc3[nH]ccc3c2)n1` was tested. Which “% Inhibition” value did it give?
**A.** Its value is 1%.

**Q.** And the Z score?
**A.** The Z score was -0.21.

**Q.** `Cc1oncc1C(=O)N1CCC[C@H](Oc2ccncn2)C1` was tested. Which “% Inhibition” value did it give?
**A.** The value was 9%.

**Q.** What about the Z score of the same compound?
**A.** The Z score was -1.2.

**Q.** What does the source list for `CCOc1ccc(-c2c[nH]c(-c3cccc(OCC(N)=O)c3)n2)cc1`?
**A.** % Inhibition: -3%; Z score: 0.32

**Q.** `CN(C)CCC1CCN(S(=O)(=O)CCC(C)(C)C)CC1` was tested. Which “% Inhibition” value did it give?
**A.** Its value is -5%.

**Q.** What about the Z score of the same compound?
**A.** Its Z score is 0.65.

**Q.** How did the “% Inhibition” value turn out when `O=C(Nc1ccc(N2CCCS2(=O)=O)cc1)c1ccc2c(c1)OCO2` was run?
**A.** Its value is -20%.

**Q.** And the Z score?
**A.** The Z score was 2.58.

**Q.** How did the “% Inhibition” value turn out when `COc1ccc(NC(=O)OCC(F)(F)F)c(OC)c1` was run?
**A.** Its value is -1%.

**Q.** And the Z score?
**A.** The Z score was 0.12.

**Q.** How did the “% Inhibition” value turn out when `O=C(CN1CCCCC1)NC1CCN(Cc2ccccc2)CC1` was run?
**A.** Its value is 2%.

**Q.** And the Z score?
**A.** The Z score was -0.36.

**Q.** Which results are given for `NC(=O)Cc1ccc(NS(=O)(=O)N2CCc3ccccc3C2)cc1`?
**A.** % Inhibition: -9%; Z score: 0.83

**Q.** For `Cc1ccc(N2CCCC2=O)cc1NC(=O)N1CCC(c2n[nH]cc2C)CC1`, which “% Inhibition” value is on record?
**A.** Its value is -8%.

**Q.** And the Z score?
**A.** The Z score was 1.78.

**Q.** For `CC1CC(C(=O)N2CCN(C(=O)Cc3c[nH]c4ccccc34)CC2)C1` (centres undefined), which “% Inhibition” value is on record?
**A.** Its value is -3%.

**Q.** What about the Z score of the same compound?
**A.** Its Z score is 0.48.
